According to publication PMC12040169 (PLOS Biology, 2025):
The other results are listed elsewhere or left out.

test system: T1, C. trachomatis L2/434/Bu expressing GFP (CTL2-GFP); set-up: species or system HeLa; C. trachomatis total inclusion area by high-content imaging, normalised to DMSO; details: total inclusion area; 28.5 h, 10 µM; inhibitor
T1 construct: L2/434/Bu GFP intracellular growth in HeLa cells
Outline: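 Post-fluorescence-read fixation, DNA staining with Hoechst and high-content imaging; GFP inclusion area and number per well, and nuclei counts, used as proxies for bacterial growth and host viability.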

Row | Compound | % of control remaining
1 | CCC(C)(C)c1ccc(S(=O)(=O)N2CCN(Cc3ccc(C(C)=O)cc3)CC2)cc1 [CBK062826] | 76.5195
2 | O=C(CCn1c(C(F)(F)F)cc2cccnc21)N1CCOCC1 [CBK284869] | 114.239
3 | O=C(NNCc1ccccc1)c1cc(Br)cnc1N1CCN(C(=O)c2ccco2)CC1 [CBK076460] | 78.536
4 | Cn1ccnc1C(NC(=O)Cc1ccc(O)cc1)c1ccccc1 (stereo not shown) [CBK283723] | 86.3763
5 | COC(=O)CCCC(=O)n1ccn(CCc2cccs2)c1=O [CBK106612] | 96.7078
6 | O=C(O)CSc1nc2ccc(NC(=O)c3ccccc3Cl)cc2s1 [CBK299791] | 96.8243
7 | COc1cccc(C2(NC(=O)c3c(C)noc3C)CCCC2)c1 [CBK283659] | 79.3512
8 | C/C(=N\NC(=O)Cc1ccc([N+](=O)[O-])cc1[N+](=O)[O-])c1ccccc1O [CBK261175] | 79.7298
9 | CCc1cc(CNS(=O)(=O)c2cc(C)ccc2F)on1 [CBK283064] | 70.3328
10 | CCc1nc2ccc(C(=O)N3CCC(O)(Cc4ccccc4)CC3)cn2c1N(CC)C(=O)CCC1CCCC1 [CBK146854] | 100.397
11 | CN1CCN(C(=O)c2ccc(-c3cncc(-c4ccc(O)cc4)n3)c(F)c2)CC1 [CBK126752] | 106.079
12 | COC(=O)c1cc(C#N)c(=O)n(CC(O)COc2cccc(Br)c2)c1 (stereo not shown) [CBK304984] | 7.605
13 | CCC(O)CNS(=O)(=O)c1ccc(OC(F)(F)F)cc1 (stereo not shown) [CBK043557] | 55.2057
14 | Cn1nc(NC(=O)COCC(=O)O)c2ccccc21 [CBK057114] | 82.2301
15 | NS(=O)(=O)c1ccc(NC(=S)NC(=O)c2ccc(Cl)cc2Cl)cc1 [CBK266265] | 82.3902
16 | O=C(O)CN(c1ccccc1[N+](=O)[O-])S(=O)(=O)c1ccccc1 [CBK263158] | 105.75
17 | CC(=O)NC1(c2ccccc2F)CCN(CC(=O)N(C)C)CC1 [CBK283618] | 94.0071
18 | COc1cc(NC(=O)COc2ccc3ccccc3c2)c(C(=O)O)cc1OC [CBK264181] | 102.879
19 | OC1(c2cccnc2)CCN(CC2(c3ccc(Cl)cc3)CC2)CC1 [CBK282780] | 90.2078
20 | O=C(c1ccc2ncccc2c1)N1CCC(c2ccncc2)CC1 [CBK283684] | 80.6991

Row | Compound | % of control remaining
21 | c1ccc(Nc2ccccc2Nc2ccccn2)nc1 [CBK261806] | 84.4656
22 | Cn1cccc1CCC(=O)NC1CCN(Cc2ccccc2Cl)CC1 [CBK306814] | 96.0012
23 | Cc1ccc(C)c(NC(=O)C2CN(S(=O)(=O)c3ccccc3)CCN2S(=O)(=O)c2ccccc2)c1 (stereo not shown) [CBK267349] | 77.1896
24 | CN(C)CCNC(=S)Nc1ccc([N+](=O)[O-])cc1 [CBK266964] | 90.2034
25 | CCNC(=O)N1CC2(CCN(Cc3ccc(Cl)c(Cl)c3)CC2)c2ccccc21 [CBK126690] | 86.1698
26 | CCN1CCCC1CNC(=O)c1cccc(Cl)c1 (stereo not shown) [CBK262621] | 103.804
27 | Oc1cccc(/C=N/c2nnn[nH]2)c1 [CBK260977] | 107.817
28 | CC(NC(=O)c1ccccc1)c1nnc(SCC(=O)N2CCOCC2)n1C (stereo not shown) [CBK269647] | 82.2586
29 | CN1CCN(C2=NC(=O)CC(C(=O)Nc3ccccc3)N2)CC1 (stereo not shown) [CBK267884] | 107.755
30 | COCCNC(=O)C1CCN(c2nc3c(-c4cccc(C)c4)csc3c(=O)[nH]2)CC1 [CBK215629] | 109.446
31 | O=C(CCCc1ccccc1)Nc1cccnc1N1CCNCC1 [CBK028256T] | 85.9296
32 | O=C(CCN1CCCC1Cn1cncn1)NCCc1ccccc1 (stereo not shown) [CBK305677] | 64.4748
33 | COCCNc1nc(-c2cccc3cccnc23)cn2ccnc12 [CBK037314] | 152.187
34 | O=C(CSc1nnc2scc(-c3ccccc3)n12)Nc1nsc(-c2ccc(Cl)cc2)n1 [CBK266576] | 108.883
35 | COc1ccc(CNC(=S)Nc2cccc(C(F)(F)F)c2)cc1OC [CBK266977] | 98.0442
36 | Cn1c(=O)c2c(nc(Oc3ccccc3Cl)n2Cc2cccc(C(F)(F)F)c2)n(C)c1=O [CBK265940] | 96.6108
37 | Fc1ccc(-c2cncc(NCCc3ccncc3)n2)c(F)c1 [CBK065810] | 97.1395
38 | COc1ccc(C(=O)N[C@@H]2CC[C@@]3(c4ccc(OC)c(OC)c4)CCN(C)[C@H]3C2)c(OC)c1 [CBK074247T] | 98.3302
39 | Cc1cc(C)n(CCCn2cncc2-c2ccc3c(c2)CC(C)N3C)n1 (stereo not shown) [CBK281773] | 126.486
40 | CC(C)(C)SCCNC(=S)NCCO [CBK020686] | 38.964
